Test results published in the supplement of paper PMC12217912.
The list shows a part of the results. The full chains were built here from the parent and the listed change. Inactive controls read about 0.05.

B1: TEV protease; numbered along this chain (parent)
chain: MGESLFKGPRDYNPISSSICHLTNESDGHTTSLYGIGFGPFIITNKHLFRRNNGTLVVQSLHGVFKVKDTTTLQQHLVDGRDMIIIRMPKDFPPFPQKLKFREPQREERICLVTTNFQTKSMSSMVSDTSCTFPSGDGIFWKHWIQTKDGQCGSPLVSTRDGFIVGIHSASNFTNTNNYFTSVPKNFMELLTNQEAQQWVSGWRLNADSVLWGGHKVFMVKPEEPFQPVKEATQL

Variants of: B1
Experiment: raw area under fraction-flipped curve 0-4 h after induction (AUC4h, not background-subtracted), DNA-recorder readout of cleavage of the substrate (dimensionless); higher = more cleavage of the substrate by the protease variant
Conditions: temperature: 34 °C; time window: 0-4 h after rhamnose induction
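Note: Bxb1 expression induced with 0.2% (w/v) L-rhamnose at OD600 near 0.5, cultures sampled hourly, flipped fraction per protease–substrate barcode pair counted by paired-end Illumina sequencing.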

Variant	area with substrate ENAYFQS	area with substrate ENDYFQS	area with substrate ENFYFQS	area with substrate ENIYFQS	area with substrate ENKYFQS	area with substrate ENMYFQS	area with substrate ENSYFQS	area with substrate ENTYFQS	area with substrate ENVYFQS	area with substrate ENYYFQS	area with substrate ENCYFQS	area with substrate ENEYFQS	area with substrate ENGYFQS	area with substrate ENHYFQS	area with substrate ENNYFQS	area with substrate ENPYFQS	area with substrate ENQYFQS	area with substrate ENRYFQS	area with substrate ENWYFQS
MGESLFKGPRDYNPISSSICHLTNESDGHTTSLYGIGFGPFIITNKHLFRRNNGTLVVQSLHGVFKVKDTTTLQQHLVDGRDMIIIRMPKDFPPFPQKLKFREPQREERICLVTTNFQTKSMSSMVSDTSCTFPSGDGIFWKHWIQTKDGQCGSPLVSTRDGFIVGIHSASNFTNTNNYFTSVPKNFMELLTNQEAQQWVSGWRLNADSVLWGGHKVFMVKPEEWFQPVKEATQL [P225W]	0.057	0.0593	0.0446	0.116	0.0765	0.0677	0.0608	0.0763	0.074	0.0837									
MGESLFKGPRDYNPISSSICHLTNESDGHTTSLYGIGFGPFIITNKHLFRRNNGTLVVQSLHGVFKVKDTTTLQQHLVDGRDMIIIRMPKDFPPFPQKLKFREPQREERICLVTTNFQTKSMSSMVSDTSCTFPSGDGIFWKHWIQTKDGQCGSPLVSTRDGFIVGIHSASNFTNTNNYFTSVPKNFMELLTNQEAQQWVSGWRLNADSVLWGGHKVFMVKPEEPYQPVKEATQL [F226Y]	0.0664	0.0445	0.0337	0.114	0.0647	0.0932	0.0591	0.064	0.0808	0.0771	0.052	0.0655	0.0606	0.0595	0.0838	0.0637	0.0746	0.0548	
MGESLFKGPRDYNPISSSICHLTNESDGHTTSLYGIGFGPFIITNKHLFRRNNGTLVVQSLHGVFKVKDTTTLQQHLVDGRDMIIIRMPKDFPPFPQKLKFREPQREERICLVTTNFQTKSMSSMVSDTSCTFPSGDGIFWKHWIQTKDGQCGSPLVSTRDGFIVGIHSASNFTNTNNYFTSVPKNFMELLTNQEAQQWVSGWRLNADSVLWGGHKVFMVKPEEPFEPVKEATQL [Q227E]	0.0661	0.0713	0.0566	0.121	0.0684		0.0752	0.0687	0.0774		0.0648	0.0281	0.0561	0.0501			0.0606		0.0044
MGESLFKGPRDYNPISSSICHLTNESDGHTTSLYGIGFGPFIITNKHLFRRNNGTLVVQSLHGVFKVKDTTTLQQHLVDGRDMIIIRMPKDFPPFPQKLKFREPQREERICLVTTNFQTKSMSSMVSDTSCTFPSGDGIFWKHWIQTKDGQCGSPLVSTRDGFIVGIHSASNFTNTNNYFTSVPKNFMELLTNQEAQQWVSGWRLNADSVLWGGHKVFMVKPEEPFMPVKEATQL [Q227M]	0.0548	0.0636	0.0519	0.128	0.0566		0.0657		0.0691	0.0389	0.0713	0.0656	0.0489	0.0627		0.0507	0.0645	0.0706	0.0548
MGESLFKGPRDYNPISSSICHLTNESDGHTTSLYGIGFGPFIITNKHLFRRNNGTLVVQSLHGVFKVKDTTTLQQHLVDGRDMIIIRMPKDFPPFPQKLKFREPQREERICLVTTNFQTKSMSSMVSDTSCTFPSGDGIFWKHWIQTKDGQCGSPLVSTRDGFIVGIHSASNFTNTNNYFTSVPKNFMELLTNQEAQQWVSGWRLNADSVLWGGHKVFMVKPEEPFPPVKEATQL [Q227P]	0.0626	0.0687	0.0559	0.104			0.0577		0.082			0.0517	0.0037	0.0643	0.0641		0.0668		
MGESLFKGPRDYNPISSSICHLTNESDGHTTSLYGIGFGPFIITNKHLFRRNNGTLVVQSLHGVFKVKDTTTLQQHLVDGRDMIIIRMPKDFPPFPQKLKFREPQREERICLVTTNFQTKSMSSMVSDTSCTFPSGDGIFWKHWIQTKDGQCGSPLVSTRDGFIVGIHSASNFTNTNNYFTSVPKNFMELLTNQEAQQWVSGWRLNADSVLWGGHKVFMVKPEEPFQPHKEATQL [V229H]	0.0582	0.0706	0.0543				0.0587	0.064	0.0665	0.0055	0.0779	0.0641	0.0474	0.0641			0.0622	0.0674	0.0481
MGESLFKGPRDYNPISSSICHLTNESDGHTTSLYGIGFGPFIITNKHLFRRNNGTLVVQSLHGVFKVKDTTTLQQHLVDGRDMIIIRMPKDFPPFPQKLKFREPQREERICLVTTNFQTKSMSSMVSDTSCTFPSGDGIFWKHWIQTKDGQCGSPLVSTRDGFIVGIHSASNFTNTNNYFTSVPKNFMELLTNQEAQQWVSGWRLNADSVLWGGHKVFMVKPEEPFQPLKEATQL [V229L]	0.0542	0.0524	0.0601	0.14	0.0681		0.0631	0.0653			0.0694	0.0652	0.0523	0.0571	0.0614		0.0558	0.0598	0.0478
MGESLFKGPRDYNPISSSICHLTNESDGHTTSLYGIGFGPFIITNKHLFRRNNGTLVVQSLHGVFKVKDTTTLQQHLVDGRDMIIIRMPKDFPPFPQKLKFREPQREERICLVTTNFQTKSMSSMVSDTSCTFPSGDGIFWKHWIQTKDGQCGSPLVSTRDGFIVGIHSASNFTNTNNYFTSVPKNFMELLTNQEAQQWVSGWRLNADSVLWGGHKVFMVKPEEPFQPYKEATQL [V229Y]	0.0638	0.0594	0.0733	0.115		0.0882	0.0621	0.0368	0.0644	0.0634	0.0611	0.0683	0.0545				0.0646	0.0606	0.0786
